From PubChem BioAssay AID686978 (National Center for Advancing Translational Sciences (NCATS), 2013)
Screen size: about 420,000 compounds; about 64,000 (15%) were called active. The shares of active, inactive and inconclusive entries below differ from those in the screen. Calls come from the whole dose curve; as a rule, active = well fitted inhibition curve with a large enough effect; inconclusive = small, poorly fitted or top-dose-only effect; inactive = flat fitted curve, though single readings scatter. No potency is given beside an inconclusive call; the fits are too rough.

Test: qHTS for Inhibitors of human tyrosyl-DNA phosphodiesterase 1 (TDP1): qHTS in cells in absence of CPT; note: nearly all actives have a fitted effect of over 55% in size
Details: DT40 Tdp1-/- hTDP1 cells, no CPT, ATP luminescence, 48 h; activity change, negative = growth inhibition: at 46.2 µM (top of the series)
Procedure, shortened: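 Growth of hTDP1-complemented DT40 Tdp1-knockout cells is measured by ATP luminescence after at least 48 hr compound exposure at 37 °C, with DMSO substituting for the 20 nM CPT used in the parallel screen.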
% is set by controls: 0 for no effect and ±100 for the full control effect; potency is the fitted concentration of half-maximal effect; tags give direction and shape of the fitted curve.

With CCn1nc(C(=O)OCc2cccc(S(=O)(=O)N(C)C)c2)c2ccccc2c1=O as the molecule, how does the Potency read?
Its Potency is inconclusive [inhibitor, full curve, poor fit].

For Cc1ccc(NC(=O)COC(=O)CCn2c(C)csc2=O)cc1S(=O)(=O)N1CCOCC1, which Potency is on record?
The Potency was “inactive”.

Which Potency does the source give for CCN1CCSc2ccc(C(=O)NCc3ccccc3F)cc21 here?
The Potency was “inactive”.

Which Potency does the source give for O=C1C2C3C=CC(C3)C2C(=O)N1CCN1CCN(Cc2ccc([N+](=O)[O-])cc2)CC1 (centres undefined) here?
Its Potency is active: 16.4 µM.

With O=C(Nc1ccccc1N1CCN(C(=O)c2ccccc2)CC1)c1ccc([N+](=O)[O-])o1 as the molecule, how does the Potency read?
Its Potency is active: 14.6 µM.

For O=C(CSc1ncnc2nc[nH]c12)c1ccc(Cl)cc1, which Potency is on record?
Its Potency is inconclusive [inhibitor, single point].

With O=C(CN1CCN(S(=O)(=O)c2ccc(Cl)c(Cl)c2)CC1)N1CCCCC1 as the molecule, how does the Potency read?
Its Potency is inconclusive [inhibitor, partial curve].

With Cc1cc(N2CCN(S(=O)(=O)c3ccc4ccccc4c3)CC2)n2ncnc2n1 as the molecule, how does the Potency read?
Its Potency is inconclusive [inhibitor, partial curve].

With Fc1ccc(Br)cc1SCCc1ccncc1 as the molecule, how does the Potency read?
The Potency was inconclusive [inhibitor, partial curve].

Which Potency does the source give for CCOc1ccc(CN(C)CC(=O)NCc2ccccc2Cl)cc1 here?
Its Potency is inconclusive [inhibitor, single point].

With CCc1nc2ccccc2n1Cc1ccc(OC)c(OC)c1 as the molecule, how does the activity change, negative = growth inhibition read?
Its activity change, negative = growth inhibition is inconclusive: -30.9% [inhibitor].

For COc1ccc(Cc2noc(CN3CCC(c4ccncc4)CC3)n2)cc1OC, which Potency is on record?
The Potency was active: 23.1 µM.

With Cc1c(Cl)cccc1NC(=O)CSc1nc2ncc(Cl)cc2[nH]1 as the molecule, how does the Potency read?
Its Potency is inconclusive [inhibitor, single point].

With COc1cccc(CNc2nc(NCc3ccccc3OC)nc3ccsc23)c1 as the molecule, how does the Potency read?
The Potency was active: 9.2 µM.

With CCc1ccc(-c2nc(CN3CCC(C(=O)NCCc4ccc(OC)c(OC)c4)CC3)c(C)o2)cc1 as the molecule, how does the Potency read?
The Potency was inconclusive [inhibitor, single point].

With O=c1[nH]c2cnn(-c3ccccc3)c2c(=O)n1O as the molecule, how does the Potency read?
The Potency was inconclusive [inhibitor, partial curve, poor fit].

For COc1ccc(-n2nc([N+](=O)[O-])c(=NCc3cccnc3)n2O)cc1, which Potency is on record?
Its Potency is inconclusive [inhibitor, single point].

For O=C(c1ccc(CSCc2ccccc2F)o1)N1CCN(c2ccc(N3CCOCC3)nn2)CC1, which Potency is on record?
The Potency was inconclusive [inhibitor, single point].

Which Potency does the source give for COc1ccc(NC(=O)Nc2nc3ccccc3s2)cc1 here?
The Potency was inconclusive [inhibitor, single point].

Which Potency does the source give for COc1ccc(NC(=O)C2CC(c3ccccc3Cl)=NO2)cc1 (centres undefined) here?
Its Potency is “inactive”.

For O=C(Nc1cc(C(F)(F)F)cc(C(F)(F)F)c1)O[C@@H]1c2ccccc2[C@@H]2Cc3csc[n+]3[C@H]12, which Potency is on record?
Its Potency is “inactive”.

Which Potency does the source give for Cc1ccc(-c2csc3ncnc(SCc4ccc(C(=O)O)cc4)c23)cc1 here?
The Potency was “inactive”.

With O=C(N/N=C/c1cn(-c2ccccc2)nc1-c1ccc(F)cc1)c1ccc(Br)o1 as the molecule, how does the Potency read?
Its Potency is active: 23.1 µM.

With Cn1nc(C(=O)N2CCN(S(=O)(=O)/C=C/c3ccccc3)CC2)c2ccccc2c1=O as the molecule, how does the Potency read?
The Potency was inconclusive [inhibitor, partial curve].

With COc1ccc(C(=O)NCC(=O)N2CCCC(C(F)(F)F)C2)cc1OC (centres undefined) as the molecule, how does the Potency read?
The Potency was “inactive”.

Which Potency does the source give for CSCCC(NC(=O)c1ccccc1Cl)C(=O)NCCOc1ccc(C)cc1 (centres undefined) here?
Its Potency is “inactive”.

Which Potency does the source give for Cc1ccc2nc(N3CCC(C(=O)N4CCN(c5cccc(C)c5C)CC4)CC3)[nH]c2c1 here?
Its Potency is active: 5.8 µM.

For O=C1/C(=C/c2cccc(Cl)c2)SC(=S)N1CCC(=O)N1CCCCC1CCO (centres undefined), which Potency is on record?
The Potency was inconclusive [inhibitor, single point].

With CNC(=O)c1nnn(-c2ccccc2)c1C(=O)NC as the molecule, how does the activity change, negative = growth inhibition read?
The activity change, negative = growth inhibition was inconclusive: -35.1% [inhibitor].

For CCOc1ccc(C(=O)NCc2nc3cccnc3n2Cc2ccc(F)cc2)cc1OCC, which Potency is on record?
Its Potency is “inactive”.

For CCCCOc1cc(NCc2ccccc2)c2ncn(C(C)C)c2c1, which Potency is on record?
The Potency was active: 20.6 µM.

With Cc1ccc(S(=O)c2ccc(C)cc2)cc1 as the molecule, how does the Potency read?
Its Potency is “inactive”.

Which Potency does the source give for Cc1cc(C)cc(NC(=O)C2CCCN2S(=O)(=O)c2ccc3c(c2)n(C)c(=O)c(=O)n3C)c1 (centres undefined) here?
Its Potency is “inactive”.

Which Potency does the source give for Cc1cccc(NC(=O)C2CC3CCC2C3)c1C (centres undefined) here?
Its Potency is “inactive”.

For COc1ccccc1N1CCN(c2cc(=O)n(-c3ccc(Cl)cc3)c(=O)[nH]2)CC1, which Potency is on record?
The Potency was inconclusive [inhibitor, single point].

With COc1ccc(C2C(C(N)=O)=C(C)Nc3nc(SCc4ccccc4Cl)nn32)cc1OC (centres undefined) as the molecule, how does the Potency read?
The Potency was “inactive”.

With COc1ccccc1C(=O)NCCC(=O)N(C)CC(=O)Nc1ccc(Cl)cc1 as the molecule, how does the Potency read?
The Potency was “inactive”.

Which Potency does the source give for CCCOc1ccc(F)cc1-c1cc(C(=O)NCc2ccccc2)[nH]n1 here?
The Potency was inconclusive [inhibitor, single point].

For Cc1cccc(NC(=O)Nc2ccccc2)n1, which Potency is on record?
Its Potency is “inactive”.

Which Potency does the source give for CCc1c(C)sc(NC(=O)c2ccoc2C)c1C(N)=O here?
The Potency was inconclusive [inhibitor, single point].

With Cc1ccccc1N=Nc1c(C)[nH]n(-c2ccccc2)c1=O as the molecule, how does the Potency read?
Its Potency is “inactive”.

For CCOC(=O)c1ccccc1NC(=O)CSc1nc2ccncc2[nH]1, which Potency is on record?
The Potency was inconclusive [inhibitor, single point].

For CC(=O)Nc1ccc(C(=O)NCC2(N3CCCCC3)CCCCC2)cc1, which Potency is on record?
Its Potency is “inactive”.

For Cc1cccc(NC(=O)Cn2c(O)c(N=NC(=O)c3ccncc3)c3ccccc32)c1, which Potency is on record?
Its Potency is “inactive”.

Which Potency does the source give for Cc1ccc(CNC(=O)c2nc(SCc3ccccc3F)ncc2Cl)cc1 here?
The Potency was inconclusive [inhibitor, full curve].

With CCCCn1c(SCC(=O)Nc2sc3c(c2C(N)=O)CCC3)nnc1-c1ccccc1 as the molecule, how does the Potency read?
Its Potency is inconclusive [inhibitor, partial curve].

For O=c1cc(O)c2c(=O)n(C3CCCCC3)c3ccccc3c2o1, which Potency is on record?
Its Potency is inconclusive [inhibitor, single point].

With COc1cc(Cn2c3ccc(NC(=O)CC(C)C(F)(F)F)cc3c(=O)n2C)ccc1F (centres undefined) as the molecule, how does the Potency read?
The Potency was active: 16.4 µM.

Which Potency does the source give for Cc1ccccc1CSCCNC(=O)c1ccccc1 here?
Its Potency is inconclusive [inhibitor, single point].
